Measured values taken from PubChem BioAssay AID485297 (National Center for Advancing Translational Sciences (NCATS), 2010).
Among all 320,000 compounds or so, about 9,100 (2.8%) were called active. The shares of active, inactive and inconclusive entries below differ from those in the screen. Calls come from the whole dose curve; as a rule, active = well fitted activation curve with a large enough effect; inconclusive = small, poorly fitted or top-dose-only effect; inactive = no such curve, though single readings can be large or run the other way. A potency beside an inconclusive call is a rough fit, not a confirmed value.

Assay: qHTS Assay for Rab9 Promoter Activators; note: nearly all actives have a fitted effect of over 60% in size
Details: Huh7 Rab9 promoter-luciferase reporter, luminescence, 24 h; series mostly up to 9.22 µM
Method in brief: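 Huh7 cells stably carrying a Rab9 promoter-luciferase reporter, 1500 cells per well in OP-MEM I with 10% FBS, treated with compound 24 hours at 37C. Luciferase activity read by luminescence after 10 minutes with Amplite reagent.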
Potency is the fitted concentration of half-maximal effect; tags give direction and shape of the fitted curve.

Potency, inconclusive:
CCOc1ccc(N2C(=O)CC(N(O)c3ccccc3)C2=O)cc1 (stereo not given) 3160 nM [activator, partial curve]
CCSc1ccc(/C(N)=N/OC(=O)c2cccs2)cn1 3160 nM [activator, single point]
O=C(/C=C/c1ccco1)Nc1cccnc1 1780 nM [activator, partial curve]
CS(=O)(=O)N1CCN(c2ccc(NC(=O)c3cccnc3Cl)cc2)CC1 1260 nM [activator, single point]
CCOCCn1c(N2CCN(c3ccccc3)CC2)nc2c1c(=O)[nH]c(=O)n2C 3550 nM [activator, partial curve]
Cc1ccc(/C=N/NC(=O)c2ccc(Br)o2)s1 4470 nM [activator, partial curve]
S=C(Nc1ccccc1)Nc1ccc2cn[nH]c2c1 2820 nM [activator, partial curve]
COc1ccc(C(=O)C2CCCN(C(=O)CCc3scnc3C)C2)c(C)c1 (stereo not given) 6310 nM [activator, single point]
O=c1oc2ccccc2cc1-c1nnc(-c2cccc(Br)c2)o1 2510 nM [activator, partial curve]
Nc1c(C(=O)Nc2ccccc2)sc2nc(-c3ccco3)ccc12 2820 nM [activator, partial curve]
COc1ccc2nc(NC(=O)c3cccnc3SC)sc2c1 5620 nM [activator, single point]
Cc1c(Cl)cccc1NC(=O)c1cc(-c2ccco2)on1 2000 nM [activator, partial curve]

Potency, active:
CCN(CC)c1ccc2nc3c4ccccc4c(=O)cc-3oc2c1 1120 nM
Cc1ccc(C)c(OCc2cc(C(=O)N3CC[C@H](O)C3)no2)c1 2510 nM
COc1cccc(C(=O)Nc2nnc(-c3ccccc3)s2)c1 1580 nM

Potency, inactive:
CCOc1ccc(NC(=O)CN(C)C(=O)CCCOc2ccc(Br)cc2)cc1OCC
CCc1nn(C(CC)C(=O)NCc2cccc(OC)c2OC)c(=O)c2cc3occc3n12 (stereo not given)
Cc1ncoc1C(=O)N1CCc2c([nH]c3ccccc23)C1C(C)(C)C (stereo not given)
Cc1cccc(NC(=O)CSCC(=O)N2CCN(C(=O)c3ccco3)CC2)c1
CCOc1ccc(S(=O)(=O)N2CCN(C(=O)c3ccc(-n4cncn4)c([N+](=O)[O-])c3)CC2)cc1
